Data: patent publication US20260227416A1 (published 2026)

What was measured:
CD20 on SU-DHL4 cells [1] = molecular target: T1, CD20 on SU-DHL4 cells (UniProt P11836); experiment: cell-based or functional assay
T1 sequence (looked up): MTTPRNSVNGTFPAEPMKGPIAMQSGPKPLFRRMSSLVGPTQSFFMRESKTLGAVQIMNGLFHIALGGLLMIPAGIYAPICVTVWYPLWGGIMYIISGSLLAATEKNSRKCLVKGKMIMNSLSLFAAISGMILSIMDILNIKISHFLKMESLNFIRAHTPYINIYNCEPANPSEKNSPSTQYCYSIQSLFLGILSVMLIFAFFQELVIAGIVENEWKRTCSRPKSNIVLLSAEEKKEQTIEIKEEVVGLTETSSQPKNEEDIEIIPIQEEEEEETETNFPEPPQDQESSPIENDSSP

CD20 on SU-DHL4 cells [2] = molecular target: T1, CD20 on SU-DHL4 cells; experiment: binding to SU-DHL4 cells with high CD20 copy number, antibody titrated up to 10 µg/mL; method of detection not stated

B1: Rituximab-Mod (modified Rituximab antibody with added PrDs) (antibody, part only; not given: light chain, part only)
heavy: VQLQQPGAELVKPGASVKMSCKASGYTFTSYNMHWVKQTPGRGLEWIGAIYPGNGDTSYNQKFKGKATLTADKSSSTAYMQLSSLTSEDSAVYYCARSTYYGGDWYFNVWGAGTTVTVSAASTKGPSVFPLAPSSKSTSGGTAALGCLVKDYFPEPVTVSWNSGALTSGVHTFPAVLQSSGLYSLSSVVTVPSSSLGTQTYICNVNHKPQNQNQNQNQNQNQNSNTKVDKKA[human IgG1 Fc not spelt out]QNQNQNQNQNQNQN
EC50 values of target cell killing (ADCC, SU-DHL4 target cells) (CD20 on SU-DHL4 cells [1]): 0.1 ng/mL | maximal binding intensity, fold over rituximab (times (relative to rituximab)) (CD20 on SU-DHL4 cells [2]): > 2
